# Reference: article PMC12820563
# This is one part of the list. The list includes weakly bound sequences.
# Biological target: T1, MBP-FoxP3dN (UniProt Q99JB6)
# T1 sequence: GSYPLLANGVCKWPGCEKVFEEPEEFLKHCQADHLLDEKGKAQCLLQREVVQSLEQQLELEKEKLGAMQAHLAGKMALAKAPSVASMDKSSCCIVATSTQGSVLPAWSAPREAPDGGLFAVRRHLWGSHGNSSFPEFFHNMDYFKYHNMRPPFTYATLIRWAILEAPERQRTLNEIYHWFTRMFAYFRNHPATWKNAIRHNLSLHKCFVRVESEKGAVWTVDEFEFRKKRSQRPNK
# Test: PD-seq (MBP pull-down with sequencing)
# Conditions: 20 mM Tris-HCl pH 7.5, 100 mM NaCl, 1.5 mM MgCl2, 0.4 uM protein, 0.1 uM dsDNA library, 30 min, room temperature, amylose pull-down; high values mean tight binding; double strand, one strand shown
row,Sequence,binding signal (RPM ratio (pull-down/input))
1,GATGATTGTTCTCCCAGCTGATGAATTATTGGTGTCGAGTAAACAAATTTTCCTAATCTTTCTGTTCAAGCGCCATCTAC,1.45
2,GATGATTGTTCTCCCAGCTGATGAATTACACGGCTCGAGTAAACAAATTTTCCTAATCTTTCTGTTCAAGCGCCATCTAC,0.332
3,GATGATTGTTCTCCCAGCTGATGAATTACACACTTCGAGTAAACAAATTTTCCTAATCTTTCTGTTCAAGCGCCATCTAC,0.651
4,GATGATTGTTCTCCCAGCTGATGAATTACGGCTATCGAGTAAACAAATTTTCCTAATCTTTCTGTTCAAGCGCCATCTAC,0.705
5,GATGATTGTTCTCCCAGCTGATGAATTTGCCGTTTCGAGTAAACAAATTTTCCTAATCTTTCTGTTCAAGCGCCATCTAC,1.25
6,GATGATTGTTCTCCCAGCTGATGAATTCAAGGCCTCGAGTAAACAAATTTTCCTAATCTTTCTGTTCAAGCGCCATCTAC,0.358
7,GATGATTGTTCTCCCAGCTGATGAATTTCTGTAATCGAGTAAACAAATTTTCCTAATCTTTCTGTTCAAGCGCCATCTAC,0.663
8,GATGATTGTTCTCCCAGCTGATGAATTCTCAACTTCGAGTAAACAAATTTTCCTAATCTTTCTGTTCAAGCGCCATCTAC,0.258
9,GATGATTGTTCTCCCAGCTGATGAATTCACTTAGTCGAGTAAACAAATTTTCCTAATCTTTCTGTTCAAGCGCCATCTAC,0.333
10,GATGATTGTTCTCCCAGCTGATGAATTACCGGGGTCGAGTAAACAAATTTTCCTAATCTTTCTGTTCAAGCGCCATCTAC,0.219
11,GATGATTGTTCTCCCAGCTGATGAATTCTAAGGTTCGAGTAAACAAATTTTCCTAATCTTTCTGTTCAAGCGCCATCTAC,0.256
12,GATGATTGTTCTCCCAGCTGATGAATTGCGTTATTCGAGTAAACAAATTTTCCTAATCTTTCTGTTCAAGCGCCATCTAC,2.84
13,GATGATTGTTCTCCCAGCTGATGAATTAACCACTTCGAGTAAACAAATTTTCCTAATCTTTCTGTTCAAGCGCCATCTAC,0.297
14,GATGATTGTTCTCCCAGCTGATGAATTTTGGTAATCGAGTAAACAAATTTTCCTAATCTTTCTGTTCAAGCGCCATCTAC,0.815
15,GATGATTGTTCTCCCAGCTGATGAATTTTGGCGTTCGAGTAAACAAATTTTCCTAATCTTTCTGTTCAAGCGCCATCTAC,1.58
16,GATGATTGTTCTCCCAGCTGATGAATTATCTCATTCGAGTAAACAAATTTTCCTAATCTTTCTGTTCAAGCGCCATCTAC,0.381
17,GATGATTGTTCTCCCAGCTGATGAATTCTTTATATCGAGTAAACAAATTTTCCTAATCTTTCTGTTCAAGCGCCATCTAC,0.357
18,GATGATTGTTCTCCCAGCTGATGAATTCACAAAGTCGAGTAAACAAATTTTCCTAATCTTTCTGTTCAAGCGCCATCTAC,0.188
19,GATGATTGTTCTCCCAGCTGATGAATTGGTATTGTCGAGTAAACAAATTTTCCTAATCTTTCTGTTCAAGCGCCATCTAC,2.4
20,GATGATTGTTCTCCCAGCTGATGAATTTTTCGAGTCGAGTAAACAAATTTTCCTAATCTTTCTGTTCAAGCGCCATCTAC,0.235
21,GATGATTGTTCTCCCAGCTGATGAATTAGAAGTTTCGAGTAAACAAATTTTCCTAATCTTTCTGTTCAAGCGCCATCTAC,0.315

row,Sequence,binding signal (RPM ratio (pull-down/input))
1,GATGATTGTTCTCCCAGCTGATGAATTGAATCGGTCGAGTAAACAAATTTTCCTAATCTTTCTGTTCAAGCGCCATCTAC,0.249
2,GATGATTGTTCTCCCAGCTGATGAATTTTGCCGTTCGAGTAAACAAATTTTCCTAATCTTTCTGTTCAAGCGCCATCTAC,2.17
3,GATGATTGTTCTCCCAGCTGATGAATTTTTTCTCTCGAGTAAACAAATTTTCCTAATCTTTCTGTTCAAGCGCCATCTAC,0.175
4,GATGATTGTTCTCCCAGCTGATGAATTGCTACTTTCGAGTAAACAAATTTTCCTAATCTTTCTGTTCAAGCGCCATCTAC,0.877
5,GATGATTGTTCTCCCAGCTGATGAATTTATAGTTTCGAGTAAACAAATTTTCCTAATCTTTCTGTTCAAGCGCCATCTAC,1.54
6,GATGATTGTTCTCCCAGCTGATGAATTGAATACGTCGAGTAAACAAATTTTCCTAATCTTTCTGTTCAAGCGCCATCTAC,0.489
7,GATGATTGTTCTCCCAGCTGATGAATTGCTTGCCTCGAGTAAACAAATTTTCCTAATCTTTCTGTTCAAGCGCCATCTAC,1.14
8,GATGATTGTTCTCCCAGCTGATGAATTGATTTTTTCGAGTAAACAAATTTTCCTAATCTTTCTGTTCAAGCGCCATCTAC,1.07
9,GATGATTGTTCTCCCAGCTGATGAATTAAACCTTTCGAGTAAACAAATTTTCCTAATCTTTCTGTTCAAGCGCCATCTAC,0.318
10,GATGATTGTTCTCCCAGCTGATGAATTTACACTCTCGAGTAAACAAATTTTCCTAATCTTTCTGTTCAAGCGCCATCTAC,0.71
11,GATGATTGTTCTCCCAGCTGATGAATTGGCGAATTCGAGTAAACAAATTTTCCTAATCTTTCTGTTCAAGCGCCATCTAC,0.898
12,GATGATTGTTCTCCCAGCTGATGAATTGCCTTGTTCGAGTAAACAAATTTTCCTAATCTTTCTGTTCAAGCGCCATCTAC,0.847
13,GATGATTGTTCTCCCAGCTGATGAATTTAAGCAATCGAGTAAACAAATTTTCCTAATCTTTCTGTTCAAGCGCCATCTAC,2.48
14,GATGATTGTTCTCCCAGCTGATGAATTCAAGAGTTCGAGTAAACAAATTTTCCTAATCTTTCTGTTCAAGCGCCATCTAC,0.318
15,GATGATTGTTCTCCCAGCTGATGAATTCACTCTATCGAGTAAACAAATTTTCCTAATCTTTCTGTTCAAGCGCCATCTAC,0.353
16,GATGATTGTTCTCCCAGCTGATGAATTCGCCTGCTCGAGTAAACAAATTTTCCTAATCTTTCTGTTCAAGCGCCATCTAC,0.699
17,GATGATTGTTCTCCCAGCTGATGAATTTCTGTTATCGAGTAAACAAATTTTCCTAATCTTTCTGTTCAAGCGCCATCTAC,1.07
18,GATGATTGTTCTCCCAGCTGATGAATTGCTCTGTTCGAGTAAACAAATTTTCCTAATCTTTCTGTTCAAGCGCCATCTAC,0.567
19,GATGATTGTTCTCCCAGCTGATGAATTACTCGGCTCGAGTAAACAAATTTTCCTAATCTTTCTGTTCAAGCGCCATCTAC,0.234
20,GATGATTGTTCTCCCAGCTGATGAATTCAGTGCATCGAGTAAACAAATTTTCCTAATCTTTCTGTTCAAGCGCCATCTAC,1.37
21,GATGATTGTTCTCCCAGCTGATGAATTGAACTTCTCGAGTAAACAAATTTTCCTAATCTTTCTGTTCAAGCGCCATCTAC,0.284

row,Sequence,binding signal (RPM ratio (pull-down/input))
1,GATGATTGTTCTCCCAGCTGATGAATTCTTCACATCGAGTAAACAAATTTTCCTAATCTTTCTGTTCAAGCGCCATCTAC,0.332
2,GATGATTGTTCTCCCAGCTGATGAATTCGGAAAATCGAGTAAACAAATTTTCCTAATCTTTCTGTTCAAGCGCCATCTAC,0.193
3,GATGATTGTTCTCCCAGCTGATGAATTGCGGTTTTCGAGTAAACAAATTTTCCTAATCTTTCTGTTCAAGCGCCATCTAC,1.42
4,GATGATTGTTCTCCCAGCTGATGAATTGACCGCGTCGAGTAAACAAATTTTCCTAATCTTTCTGTTCAAGCGCCATCTAC,0.46
5,GATGATTGTTCTCCCAGCTGATGAATTGCGCACATCGAGTAAACAAATTTTCCTAATCTTTCTGTTCAAGCGCCATCTAC,1.71
6,GATGATTGTTCTCCCAGCTGATGAATTCCATCTATCGAGTAAACAAATTTTCCTAATCTTTCTGTTCAAGCGCCATCTAC,0.555
7,GATGATTGTTCTCCCAGCTGATGAATTCTCCCACTCGAGTAAACAAATTTTCCTAATCTTTCTGTTCAAGCGCCATCTAC,0.246
8,GATGATTGTTCTCCCAGCTGATGAATTCTGGGCTTCGAGTAAACAAATTTTCCTAATCTTTCTGTTCAAGCGCCATCTAC,0.324
9,GATGATTGTTCTCCCAGCTGATGAATTAAATGCCTCGAGTAAACAAATTTTCCTAATCTTTCTGTTCAAGCGCCATCTAC,1.19
10,GATGATTGTTCTCCCAGCTGATGAATTTTACATTTCGAGTAAACAAATTTTCCTAATCTTTCTGTTCAAGCGCCATCTAC,0.435
11,GATGATTGTTCTCCCAGCTGATGAATTCTATCGCTCGAGTAAACAAATTTTCCTAATCTTTCTGTTCAAGCGCCATCTAC,0.497
12,GATGATTGTTCTCCCAGCTGATGAATTTTCAGTGTCGAGTAAACAAATTTTCCTAATCTTTCTGTTCAAGCGCCATCTAC,0.378
13,GATGATTGTTCTCCCAGCTGATGAATTGCCAGAATCGAGTAAACAAATTTTCCTAATCTTTCTGTTCAAGCGCCATCTAC,0.291
14,GATGATTGTTCTCCCAGCTGATGAATTCAGGATATCGAGTAAACAAATTTTCCTAATCTTTCTGTTCAAGCGCCATCTAC,0.322
15,GATGATTGTTCTCCCAGCTGATGAATTACGTTTCTCGAGTAAACAAATTTTCCTAATCTTTCTGTTCAAGCGCCATCTAC,1.21
16,GATGATTGTTCTCCCAGCTGATGAATTATGATATTCGAGTAAACAAATTTTCCTAATCTTTCTGTTCAAGCGCCATCTAC,2.74
17,GATGATTGTTCTCCCAGCTGATGAATTAAGCTAATCGAGTAAACAAATTTTCCTAATCTTTCTGTTCAAGCGCCATCTAC,0.302
18,GATGATTGTTCTCCCAGCTGATGAATTGAGTCCATCGAGTAAACAAATTTTCCTAATCTTTCTGTTCAAGCGCCATCTAC,0.356
19,GATGATTGTTCTCCCAGCTGATGAATTAGCTTGCTCGAGTAAACAAATTTTCCTAATCTTTCTGTTCAAGCGCCATCTAC,2.54
20,GATGATTGTTCTCCCAGCTGATGAATTCCCGTTCTCGAGTAAACAAATTTTCCTAATCTTTCTGTTCAAGCGCCATCTAC,0.361
21,GATGATTGTTCTCCCAGCTGATGAATTAACGTCGTCGAGTAAACAAATTTTCCTAATCTTTCTGTTCAAGCGCCATCTAC,0.533
